Test results published in the supplement of paper PMC4967469.

Columns and labels:
Test in all cases: Viability of human cancer cell lines after 72 h of drug (GDSC screen)
[1] = compound: CN1CCc2c(c3ccccc3n2Cc2ccc(C(=O)NO)cc2)C1 [Tubastatin A]; details: top dose 20 µM
Protocol: (§1)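 Human cancer cell lines in 384-well plates, medium with 10% serum, drug for 72 h over a 256-fold dose range (nine 2-fold or five 4-fold steps up to the top dose). Adherent lines were fixed and stained with the nucleic acid dye Syto60, suspension lines read with resazurin; signal relative to control wells, capped at 0 and 100%. One two-parameter sigmoid per drug and line, fitted in a mixed model over all curves with the slope shared within a line.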

[2] = compound: COc1cc2c(Oc3ccc(NC(=O)C4(C(=O)Nc5ccc(F)cc5)CC4)cc3F)ccnc2cc1OCCCN1CCOCC1 [XL-880]; details: top dose 5.12 µM; top dose inferred
Protocol: as §1

[3] = compound: Cn1nnc2c(C(N)=O)ncn2c1=O [Temozolomide]; details: top dose 30 µM
Protocol: as §1

[4] = compound: O=C(NOCC1CC1)c1ccc(F)c(F)c1Nc1ccc(I)cc1Cl [CI-1040]; details: top dose 10 µM; top dose inferred
Protocol: as §1

[5] = compound: Oc1ccc2ccccc2c1SSc1c(O)ccc2ccccc12 [IPA-3]; details: top dose 32 µM; top dose inferred
Protocol: as §1

Row | Cell Line | AUC [1] | IC50 [1] [µM] | AUC [2] | IC50 [2] [µM] | AUC [3] | IC50 [3] [µM] | AUC [4] | IC50 [4] [µM] | AUC [5] | IC50 [5] [µM]
1 | MDA-MB-436 (breast, adherent) | 0.97 | > 20 | 0.875 | > 5.12 | 0.964 | > 30 | 0.879 | > 10 | 0.97 | > 32
2 | EBC-1 (lung squamous cell carcinoma, adherent) | 0.983 | > 20 | 0.356 | 0.121 | 0.955 | > 30 | 0.692 | 2.33 | 0.836 | 25.2
3 | OE19 (oesophagus, adherent) | 0.985 | > 20 | 0.879 | > 5.12 | 0.985 | > 30 | 0.95 | > 10 | 0.976 | > 32
4 | C-33-A (cervix, adherent) | 0.871 | 19 | 0.575 | 0.513 | 0.98 | > 30 | 0.919 | > 10 | 0.982 | > 32
5 | NCI-H1693 (lung adenocarcinoma, adherent) | 0.925 | > 20 | 0.805 | 4.8 | 0.964 | > 30 | 0.727 | 4.18 | 0.976 | > 32
6 | HOS (osteosarcoma, adherent) | 0.992 | > 20 | 0.89 | 4.21 | 0.99 | > 30 | 0.841 | 5.35 | 0.658 | 5.05
7 | LN-18 (glioma, adherent) | 0.994 | > 20 | 0.731 | 1.25 | 0.993 | > 30 | 0.967 | > 10 | 0.988 | > 32
8 | P12-ICHIKAWA (T-cell lymphoblastic leukaemia, suspension) | 0.858 | 10.8 | 0.591 | 0.535 | 0.994 | > 30 | 0.983 | > 10 | 0.955 | > 32
9 | YKG-1 (glioma, adherent) | 0.963 | > 20 | 0.672 | 0.971 | 0.985 | > 30 | 0.856 | 8.2 | 0.741 | 9.93
10 | AN3-CA (endometrium, adherent) | 0.983 | > 20 | 0.575 | 0.524 | 0.965 | > 30 | 0.82 | 6.44 | 0.714 | 8.57
11 | NCI-H3122 (lung adenocarcinoma, adherent) | 0.923 | > 20 | 0.668 | 0.956 | 0.985 | > 30 | 0.812 | 5.55 | 0.862 | 28.9
12 | FU-OV-1 (ovary, adherent) | 0.979 | > 20 | 0.625 | 0.792 | 0.968 | > 30 | 0.851 | > 10 | 0.969 | > 32
13 | NB12 (neuroblastoma, adherent) | 0.786 | 12 | 0.791 | 3.22 | 0.944 | > 30 | 0.961 | > 10 | 0.974 | > 32
14 | JHH-2 (liver, adherent) | 0.986 | > 20 | 0.602 | 0.622 | 0.984 | > 30 | 0.847 | 8.26 | 0.986 | > 32
15 | HDQ-P1 (breast, adherent) | 0.924 | > 20 | 0.788 | 2.73 | 0.983 | > 30 | 0.834 | 8.39 | 0.875 | > 32
16 | Detroit562 (head and neck, adherent) | 0.987 | > 20 | 0.765 | 1.8 | 0.987 | > 30 | 0.895 | > 10 | 0.988 | > 32
17 | MEL-JUSO (melanoma, adherent) | 0.951 | > 20 | 0.541 | 0.419 | 0.964 | > 30 | 0.777 | 4.52 | 0.84 | 25.9
18 | NCI-H2009 (lung adenocarcinoma, adherent) | 0.978 | > 20 | 0.801 | 2.67 | 0.982 | > 30 | 0.749 | 3.4 | 0.639 | 4.97
19 | 5637 (bladder, adherent) | 0.933 | > 20 | 0.599 | 0.581 | 0.978 | > 30 | 0.931 | > 10 | 0.871 | 25.3
20 | SW1417 (large intestine, adherent) | 0.977 | > 20 | 0.71 | 1.4 | 0.985 | > 30 | 0.796 | 5.6 | 0.979 | > 32
21 | Daoy (medulloblastoma, adherent) | 0.809 | 9.28 | 0.706 | 1.15 | 0.982 | > 30 | 0.927 | > 10 | 0.614 | 3.99
22 | H2373 (mesothelioma, adherent) | 0.963 | > 20 | 0.67 | 1.08 | 0.981 | > 30 | 0.854 | > 10 | 0.983 | > 32
23 | HT-3 (cervix, adherent) | 0.967 | > 20 | 0.701 | 1.19 | 0.981 | > 30 | 0.898 | > 10 | 0.937 | > 32
24 | NCI-H596 (lung adenocarcinoma, adherent) | 0.982 | > 20 | 0.742 | 1.98 | 0.976 | > 30 | 0.927 | > 10 | 0.879 | > 32
25 | OSC-20 (head and neck, adherent) | 0.959 | > 20 | 0.604 | 0.654 | 0.957 | > 30 | 0.824 | 7.52 | 0.857 | > 32
26 | PA-TU-8988T (pancreas, adherent) | 0.986 | > 20 | 0.731 | 1.46 | 0.984 | > 30 | 0.839 | 6.87 | 0.771 | 12.3

The IC50 comes from the fitted curve, where viability falls to half of the control; where the fit passes the top or lowest dose, that dose stands as a limit. AUC is the area under the same curve over the 256-fold range up to the top dose, as a fraction; values near 1 show little effect. For some assays here: Any top dose called inferred is not printed in the source and was worked back from the curve model.
